Laboratory results published in PubChem BioAssay (NCATS).
This list was built around the results that the source calls inconclusive (neither active nor inactive); the mix of calls is not that of the screen. No potency is given beside an inconclusive call; the fits are too rough. Activity calls are given as the source filed them. Calls follow the shape of the dose curve; as a rule, active = well fitted cell-killing curve with a large enough effect; inconclusive = small, poorly fitted or top-dose-only effect, or effect the other way; inactive = no such curve, though single readings can be large or run the other way.

assay: Quantitative High-Throughput drug screen in 47 multiple myeloma cell lines against the NCATS MIPE library collection: Karpas620_DSMZ cell viability assay (AID 1918959); conditions: Karpas620 myeloma viability, CellTiter-Glo ATP luminescence, 48 h; viability (% of DMSO): at 45.8 µM (top of the series); also: nearly all actives have a fitted effect of over 30% in size
Source text: PI: Beverly A. Mock Ph.D.
Laboratory of Cancer Biology and Genetics,
Center for Cancer Research, National Cancer Institute,
National Institute of Health, Bethesda, Maryland
Drug resistance and disease progression are common in multiple myeloma (MM) patients, underscoring the need for new therapeutic combinations. […] We hypothesized that effective combinations would reduce MYC expression and enhance p16 activity. […] These preclinical data identify potentially useful drug combinations for evaluation in drug-resistant MM and reveal potential mechanisms of combined drug sensitivity.
Described herein is the primary MIPE qHTS used to cherrypick compounds. Validated compounds were then further tested for potential synergistic activiy.
[1] Peat TJ, Gaikwad SM, Dubois W, Gyabaah-Kessie N, Zhang S, Gorjifard S, Phyo Z, Andres M, Hughitt VK, Simpson RM, Miller MA, Girvin AT, Taylor A, Williams D, D'Antonio N, Zhang Y, Rajagopalan A, Flietner E, Wilson K, Zhang X, Shinn P, Klumpp-Thomas C, McKnight C, Itkin Z, Chen L, Kazandijian D, Zhang J, Michalowski AM, Simmons JK, Keats J, Thomas CJ, Mock BA. Drug combinations identified by high-throughput screening promote cell cycle transition and upregulate Smad pathways in myeloma. Cancer Lett. 2023 Aug 1;568:216284. doi: 10.1016/j.canlet.2023.216284. Epub 2023 Jun 24. PMID: 37356470; PMCID: PMC10408729.
SEQUENCE No. (e.g., 1, 2, 3, etc.); […] (e.g., Cells, Incubation, Reagent, etc.); VALUE and DESCRIPTION.
1; Cells; 5 uL; white, solid bottom 1536-well Greiner assay plate.
2; Compounds; 23 nL; Kalypsis pin tool (Wako USA) equipped with a 1536-well pin head to transfer to the assay plates.
3; Incubation; 48 hours; 37C incubation.
4; Reagent;5uL; CellTiter Glo (Promega).
5; Detector; 425V; Luminescence; Viewlux PerkinElmer.
NOTES (numbers refer to Sequence numbers above)
1. The cell-based screening methods employed in this study were like those previously published. Briefly, the corresponding myeloma cell lines were screened in 1,536-well plates with 500 cells, 5-uL per well for inhibition of cell viability (assessed by measuring ATP levels with CellTiterGlo).
2. NCATS MIPE 4.0 library of approved and investigational drugs were added using the Kalypsis pin tool. Wells treated with DMSO only for 100% viability and media only wells for 0% viability were used as controls.
3. The assay plates were covered and incubated for 48 hours in a 37C, 5% CO2 incubator with controlled humidity.
4. After 48 hours, CellTilter-GloTM luminescent substrate mix (Promega) reagent was added to the assay plate and plates we incubated for 5 min at room temperature.
5. Signal was measured as median relative luminescence units on a ViewLux (PerkinElmer) multiplate reader.
[1] Heske CM, Davis MI, Baumgart JT, Wilson K, Gormally MV, Chen L, Zhang X, Ceribelli M, Duveau DY, Guha R, Ferrer M, Arnaldez FI, Ji J, Tran HL, Zhang Y, Mendoza A, Helman LJ, Thomas CJ. Matrix Screen Identifies Synergistic Combination of PARP Inhibitors and Nicotinamide Phosphoribosyltransferase (NAMPT) Inhibitors in Ewing Sarcoma. Clin Cancer Res. 2017 Dec 1;23(23):7301-7311. doi: 10.1158/1078-0432.CCR-17-1121. Epub 2017 Sep 12. PMID: 28899971; PMCID: PMC6636827.
Potency is read from the fitted curve at half-maximal effect; tags tell the direction and shape of the fitted curve.

SMILES	Potency	viability (% of DMSO)
CNC(=O)c1c(F)cccc1Nc1nc(Nc2cc3c(cc2OC)CCN3C(=O)CN(C)C)nc2[nH]ccc12	inconclusive [cytotoxic, full curve, poor fit]	
CCS(=O)(=O)Nc1ccc2[nH]c(O)c(C(=Nc3ccc(CN4CCCCC4)cc3)c3ccccc3)c2c1	active: 1.48 µM	
COc1cc2c(cc1O)CCC1C2CC[C@@]2(C)C1CC[C@@H]2O (stereo not given in full)	inconclusive [cytotoxic, full curve, poor fit]	
Cc1cc(CN2CCN(c3c(Br)cnc4nc(-c5ccc(N6CCN(C)CC6)cc5)[nH]c34)CC2)no1	inconclusive [cytotoxic, full curve, poor fit]	
O=C1c2c(O)cccc2[C@@H]([C@@H]2O[C@H](CO)[C@@H](O)[C@H](O)[C@H]2O)c2cc(CO)cc(O)c21	inactive	
CCOc1cc2c(c(F)c1OCC)C(=N)N(CC(=O)c1cc(N3CCOCC3)c(OC)c(C(C)(C)C)c1)C2	inconclusive [rising, full curve, poor fit]	
CNC(=O)Nc1ccc(-c2nc(N3CC4CCC(C3)O4)c3cnn(C4CCC5(CC4)OCCO5)c3n2)cc1	inconclusive [cytotoxic, partial curve]	
CCn1cc(-c2ccnc3[nH]c(-c4cccc(CN(C)C)c4)cc23)c(-c2ccc(NC(=O)N(C)C)cc2)n1	active: 20.9 µM	
Cc1ccc(NC(=O)C2(c3ccc4c(c3)OC(F)(F)O4)CC2)nc1-c1cccc(C(=O)O)c1	active: 0.166 µM	
O=C(Nc1nc2cccc(-c3ccc(CN4CCS(=O)(=O)CC4)cc3)n2n1)C1CC1	inconclusive [cytotoxic, single point]	
CN(C)CC[C@H](c1ccc(Cl)cc1)c1ccccn1	inactive	
COc1cc(C[C@@H](CO)[C@H](CO)Cc2ccc(O)c(OC)c2)ccc1O	inconclusive [cytotoxic, full curve, poor fit]	
Cc1nc2ccc(CN(C)c3ccc(C(=O)N[C@@H](CCC(=O)O)C(=O)O)s3)cc2c(=O)[nH]1	inactive	
O=C(O)C[C@H](O)C[C@H](O)C=Cc1c(C2CC2)nc2ccccc2c1-c1ccc(F)cc1	inconclusive [cytotoxic, single point]	
C=CC(=O)Nc1cccc(Nc2nc(NC3CCC(N(C)C)CC3)nc3c2ncn3C(C)C)c1 (stereo not given)		inconclusive: 6.5% [cytotoxic]
O=C(C=CC#Cc1cccc(NS(=O)(=O)c2ccccc2)c1)NO	active: 1.87 µM	
CC(C)N1[N]C(=C2C=c3cc(O)ccc3=N2)c2c(N)ncnc21	active: 5.9 µM	
Cc1coc2c1C(=O)C(=O)c1c-2ccc2c(C)cccc12	active: 6.62 µM	
O=C(CS(=O)Cc1ccco1)NCC=CCOc1cc(CN2CCCCC2)ccn1 (stereo not given)	inconclusive [rising, full curve, poor fit]	
CS(=O)(=O)N1CCc2c(-c3cnc(N)nc3)nc(N3CCOCC3)nc21	inconclusive [cytotoxic, full curve]	

SMILES	Potency	viability (% of DMSO)
COC(=O)Nc1nc2ccc(C(=O)c3ccc(F)cc3)cc2[nH]1	inconclusive [cytotoxic, full curve]	
O=C(O)COCCN1CCN(C(c2ccccc2)c2ccc(Cl)cc2)CC1 (stereo not given)	inactive	
O=C(c1ccc(F)cc1)N1CCC[C@H](c2nc(-c3ccc(F)cc3)no2)C1	inactive	
Cc1ccc(CN2CCNCC2)cc1NC(=O)CNc1ccc(F)c(F)c1	inconclusive [rising, full curve, poor fit]	
COc1ccc(C[C@@H](C)[C@@H](C)Cc2ccc(OC)c(OC)c2)cc1OC	inconclusive [cytotoxic, full curve]	
C=CCNC1=C2C[C@@H](C)C[C@H](OC)[C@@H](O)[C@@H](C)C=C(C)[C@H](OC(N)=O)[C@@H](OC)C=CC=C(C)C(=O)NC(=CC1=O)C2=O	active: 1.87 µM	
CC[C@@]1([C@@H]2O[C@@H]([C@H]3O[C@@](O)(CO)[C@H](C)C[C@H]3C)C[C@H]2C)CC[C@H]([C@]2(C)CC[C@]3(C[C@H](O)[C@@H](C)[C@@H]([C@@H](C)[C@@H](OC)[C@H](C)C(=O)O)O3)O2)O1	inconclusive [cytotoxic, full curve]	
CN1CCN(CCCN2c3ccccc3Sc3ccc(C(F)(F)F)cc32)CC1	inconclusive [cytotoxic, partial curve, poor fit]	
CNC(=O)c1ccccc1Sc1ccc2c(C=Cc3ccccn3)n[nH]c2c1	active: 0.264 µM	
CNC(=O)c1ccc(Nc2cc(Nc3ccccc3S(=O)(=O)C(C)C)c3cc[nH]c3n2)nc1	active: 1.32 µM	
Cc1cc(Nc2cc(CN3CCOCC3)c3nc(C)c(Cc4ccc(Cl)cc4F)n3n2)n[nH]1	inconclusive [cytotoxic, full curve, poor fit]	
CO[C@@H]1[C@@H](OC(N)=O)[C@@H](O)[C@H](Oc2ccc3c(O)c(NC(=O)c4ccc(O)c(CC=C(C)C)c4)c(=O)oc3c2C)OC1(C)C	inconclusive [cytotoxic, single point]	
CCc1c2c(nc3ccc(O)cc13)-c1cc3c(c(=O)n1C2)COC(=O)[C@]3(O)CC	active: 0.743 µM	
NC1(Cc2ccc(Cl)cc2)CCN(c2ncnc3[nH]ccc23)CC1	inconclusive [cytotoxic, full curve, poor fit]	
C[C@@H](Oc1ccc2[nH]nc(C=Cc3cnn(CCO)c3)c2c1)c1c(Cl)cncc1Cl	inconclusive [cytotoxic, full curve, poor fit]	
O=C(Nc1ncc(-c2cc(C(F)F)nn2-c2c(Cl)cccc2Cl)s1)C1CC1	inconclusive [cytotoxic, full curve]	
O=S(=O)(c1cccc2cnccc12)N1CCCNCC1	inconclusive [cytotoxic, full curve, poor fit]	
COc1cc(OC)c(C=CS(=O)(=O)Cc2ccc(OC)c(NCC(=O)O)c2)c(OC)c1	inconclusive [cytotoxic, full curve]	
COC(=O)[C@@H]1[C@H]2C[C@@H]3c4[nH]c5ccccc5c4CCN3C[C@@H]2CC[C@@H]1O	inconclusive	
O=C(Nc1cccc(Nc2ncc(Br)c(NCCc3cnc[nH]3)n2)c1)N1CCCC1	inactive	
